In PMC4336329 (PLoS ONE, 2015):
Out of some 310,000 compounds screened, about 2,200 (0.71%) showed an effect of 50% or more. The effect is printed as a negative number. The list shows a part of the results.

target: human ether-à-go-go-related gene (hERG) potassium channel (human, UniProt Q12809); assay: primary screen, population patch clamp on CHO cells stably expressing hERG
Sequence (Q12809 whole entry, looked up): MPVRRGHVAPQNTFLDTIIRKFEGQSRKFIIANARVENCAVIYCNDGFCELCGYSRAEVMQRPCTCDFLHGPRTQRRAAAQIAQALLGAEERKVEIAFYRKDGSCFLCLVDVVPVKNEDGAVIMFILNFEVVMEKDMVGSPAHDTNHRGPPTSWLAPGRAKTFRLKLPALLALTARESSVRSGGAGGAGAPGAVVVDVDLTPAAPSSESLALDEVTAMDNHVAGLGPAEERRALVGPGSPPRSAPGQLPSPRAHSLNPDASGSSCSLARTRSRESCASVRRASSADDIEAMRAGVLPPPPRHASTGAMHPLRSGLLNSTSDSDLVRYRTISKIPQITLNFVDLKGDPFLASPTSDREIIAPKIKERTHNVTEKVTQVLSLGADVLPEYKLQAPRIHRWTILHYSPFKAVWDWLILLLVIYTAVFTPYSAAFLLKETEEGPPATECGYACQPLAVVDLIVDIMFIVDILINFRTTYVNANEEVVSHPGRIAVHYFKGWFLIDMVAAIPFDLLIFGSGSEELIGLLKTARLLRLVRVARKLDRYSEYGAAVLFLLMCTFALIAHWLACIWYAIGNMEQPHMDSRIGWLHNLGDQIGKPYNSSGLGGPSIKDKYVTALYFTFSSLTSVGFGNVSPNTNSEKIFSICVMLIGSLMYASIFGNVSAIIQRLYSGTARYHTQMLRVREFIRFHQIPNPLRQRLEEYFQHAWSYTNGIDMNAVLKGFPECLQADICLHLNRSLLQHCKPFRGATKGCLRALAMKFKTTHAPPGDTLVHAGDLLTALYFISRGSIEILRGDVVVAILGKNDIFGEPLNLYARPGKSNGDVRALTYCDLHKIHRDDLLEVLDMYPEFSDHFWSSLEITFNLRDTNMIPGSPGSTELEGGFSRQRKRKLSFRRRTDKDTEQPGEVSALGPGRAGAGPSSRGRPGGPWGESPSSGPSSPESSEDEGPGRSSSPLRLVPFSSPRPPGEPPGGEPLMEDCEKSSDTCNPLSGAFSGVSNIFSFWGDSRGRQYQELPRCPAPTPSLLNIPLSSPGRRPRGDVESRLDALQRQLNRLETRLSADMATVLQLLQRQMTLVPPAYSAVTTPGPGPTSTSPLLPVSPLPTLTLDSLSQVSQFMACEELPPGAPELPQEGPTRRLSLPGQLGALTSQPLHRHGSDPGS

SMILES | hERG current change (%, negative = inhibition) at 1uM [%]
Cc1ccc(S(=O)(=O)NCCC(=O)N2CC(C)OC(C)C2)cc1C (centres unmarked) | 9.3
COc1cc2nc(NC(=O)c3ccc(F)cc3Cl)sc(=O)c2cc1OC | 14.7
O=C(NC1CCCCCC1)C1c2ccccc2C(=O)N1Cc1cccnc1 (centres unmarked) | 2.1
N#Cc1ccc(OCC(=O)N2CCCC2=O)cc1 | 10.8
C=CCc1cccc(/C=N/NC(=O)COc2ccc(-n3cnnn3)cc2)c1O | 12.2
O=C(CN1C(=O)c2ccccc2S1(=O)=O)Nc1cccnc1 | 7.85
C=CCn1ncc(OC)c(Cl)c1=O | 4.03
O=C(Nc1ccc(F)cc1)C(=O)c1c(O)[nH]c2ccc([N+](=O)[O-])cc12 | 6.67
Cc1ccc(S(=O)(=O)N2CCC(NC(=O)c3cccc(F)c3)CC2)cc1 | 9.79
CC(C)(C)c1ccc(S(=O)(=O)NC(Cc2ccccc2)C(=O)O)cc1 (centres unmarked) | 8.88
Cc1nn(CC(=O)NC2CCS(=O)(=O)C2)c(C)c1S(=O)(=O)N(C)C (centres unmarked) | -3.45
CCOCc1c(C(=O)NC2=Nc3ccccc3NC(CC)=C2C(=O)OCC)oc2ccccc12 | 11.2
CC(C)COc1ccc(C(=O)NC(CC(C)C)C(=O)O)cc1 (centres unmarked) | 10.2
CCOC(=O)C1=CC[C@H]2c3c(c4ccccc4n3C)C(=O)C1N2C | 15.3
COc1ccccc1N1CCN(Cc2cc(=O)c(OCC(=O)Nc3ccccc3)co2)CC1 | 13.4
O=C(CN1c2cccc3cccc(c23)S1(=O)=O)NCc1ccc(Cl)cc1 | 0.845
O=C(c1ccc(Cl)cc1)C1CCN(C(=O)NC2CCCCC2)CC1 | 0.184
CC(C)c1ccc(NC(=S)N2CCCC(c3ccc(F)cc3)=N2)cc1 | 11
Cc1cc([N+](=O)[O-])cc2c1NC(c1ccccn1)C1CC=CC21 (centres unmarked) | 8.71
COc1ccc(NC(=O)C(NC(=O)c2ccc(=O)[nH]c2)c2ccc(C)cc2)cc1 (centres unmarked) | 13.4
O=C(NC(C(=O)c1ccccc1)n1cnccc1=O)c1ccccc1 (centres unmarked) | 16.7
CC(=O)N1CCc2c(sc(NC(=O)Cc3ccc(F)cc3)c2C(N)=O)C1 | 13.9

SMILES | hERG current change (%, negative = inhibition) at 1uM [%]
CCOc1ccc(C(=O)N2CCCC2)cc1 | 10.9
CC(Sc1n[nH]c(-c2cccs2)n1)C(=O)Nc1ccccc1F (centres unmarked) | 19.7
O=C(CCCSc1nc2ccccc2[nH]1)NCc1ccc(Cl)cc1 | -8.79
O=C(O)CNc1ncccc1[N+](=O)[O-] | -34.9
CN(CC(=O)Nc1cccc(F)c1)C(=O)c1cn(-c2ccccc2)nc1-c1ccccc1 | 6.79
CC(=O)c1c(C)[nH]c(C(=O)CSc2nc3ccccc3c(=O)n2CCCO)c1C | 5.85
Cc1ccc(OCC(=O)NCCNC(=O)c2cccnc2)cc1C | 20
O=C(Cn1c(=O)n(Cc2ccco2)c(=O)c2ccccc21)Nc1cccc(Cl)c1 | 8.31
CC(C)c1ccc(NC(=O)CNCC(c2ccccc2)N(C)C)cc1 (centres unmarked) | 6.64
COC(=O)c1ccccc1NC(=O)CSc1nncn1C | 15.6
COc1ccc(NCC(=O)n2c(C)c(C)c3ccccc32)cc1OC | 14.3
COCCCNc1c2c(nc3nnnn13)CCCC2 | 7.68
COC(=O)c1ccccc1NC(=O)CN1C(=O)NC2(CCCCCCC2)C1=O | 9.1
CC[n+]1c(C)n(-c2ccccc2)c2ccc(C(=O)OC)cc21.[I-] | 13.1
CC(C)Oc1ccc(CC2CC(=O)NC2=O)cc1 (centres unmarked) | 13.9
CC[N+](C)(CC)CCCOC(=O)C(O)(c1ccccc1)C1CCCCC1.[I-] (centres unmarked) | 10.4
Cc1ccc(C(=O)Nc2nc(N)n(-c3ccccc3)n2)cc1 | 12.1
CCOc1cccc(C(=O)Nc2ccc3c(c2)OCCO3)c1 | 12.1
CN(C)C(=O)c1cn(N(C)c2ncc(C(F)(F)F)cc2Cl)c(=O)c2ccccc12 | 9.97
O=S(=O)(Nc1cc(Cl)ccc1-n1cncn1)c1ccc(F)cc1 | 6.13
O=C(CC(C(=O)O)c1ccc(Cl)cc1)c1ccc(Cl)c(Cl)c1 (centres unmarked) | 13.2
Cc1ccc(S(=O)(=O)N2CCCCC2)cc1NC(=O)c1c(-c2ccccc2)noc1C | -0.916
